From publication PMC9911399, “Two distinct binding modes provide the RNA-binding protein RbFox with extraordinary sequence specificity” come the findings set out here.

T1: RBFOX1 RRM RbFoxmut (Fox-RRM*) (Homo sapiens, UniProt Q9NWB1 109-208, R118D;E147R;N151S;E152T)
T1 sequence: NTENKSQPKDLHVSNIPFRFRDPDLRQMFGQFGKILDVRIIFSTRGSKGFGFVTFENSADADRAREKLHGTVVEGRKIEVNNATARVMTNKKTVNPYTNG

B1: GUUCUGG (DNA:RNA)
RNA: GGGAGACCGGAAUUCAGAUUGUCCGUUCUGGUUAAAUCCCGUCGUAGCCACCA
DNA 1: CAATCTGAATTCCGGTCTCCC
DNA 2: TGGTGGCTACGACGGGATT
B2: CCGGUAA (DNA:RNA)
RNA: B1 RNA with G25C, U26C, U27G, C28G, G30A, G31A
DNA 1: CAATCTGAATTCCGGTCTCCC
DNA 2: TGGTGGCTACGACGGGATT
B3: GGACUGC (DNA:RNA)
RNA: B1 RNA with U26G, U27A, G31C
DNA 1: CAATCTGAATTCCGGTCTCCC
DNA 2: TGGTGGCTACGACGGGATT
B4: GAUGACG (DNA:RNA)
RNA: B1 RNA with U26A, C28G, U29A, G30C
DNA 1: CAATCTGAATTCCGGTCTCCC
DNA 2: TGGTGGCTACGACGGGATT
B5: UCCUCGC (DNA:RNA)
RNA: B1 RNA with G25U, U26C, U27C, C28U, U29C, G31C
DNA 1: CAATCTGAATTCCGGTCTCCC
DNA 2: TGGTGGCTACGACGGGATT
B6: GGUAAUU (DNA:RNA)
RNA: B1 RNA with U26G, C28A, U29A, G30U, G31U
DNA 1: CAATCTGAATTCCGGTCTCCC
DNA 2: TGGTGGCTACGACGGGATT
B7: GGGGUUA (DNA:RNA)
RNA: B1 RNA with U26G, U27G, C28G, G30U, G31A
DNA 1: CAATCTGAATTCCGGTCTCCC
DNA 2: TGGTGGCTACGACGGGATT
B8: AGUACGU (DNA:RNA)
RNA: B1 RNA with G25A, U26G, C28A, U29C, G31U
DNA 1: CAATCTGAATTCCGGTCTCCC
DNA 2: TGGTGGCTACGACGGGATT
B9: CUCUUCU (DNA:RNA)
RNA: B1 RNA with G25C, U27C, C28U, G30C, G31U
DNA 1: CAATCTGAATTCCGGTCTCCC
DNA 2: TGGTGGCTACGACGGGATT
B10: GCAUCCG (DNA:RNA)
RNA: B1 RNA with U26C, U27A, C28U, U29C, G30C
DNA 1: CAATCTGAATTCCGGTCTCCC
DNA 2: TGGTGGCTACGACGGGATT
B11: UACUACU (DNA:RNA)
RNA: GGGAGACCGGAAUUCAGAUUGUCCUACUACUUUAAAUCCCGUCGUAGCCACCA
DNA 1: CAATCTGAATTCCGGTCTCCC
DNA 2: TGGTGGCTACGACGGGATT
B12: CUCUCAU (DNA:RNA)
RNA: B11 RNA with U25C, A26U, A29C, C30A
DNA 1: CAATCTGAATTCCGGTCTCCC
DNA 2: TGGTGGCTACGACGGGATT
B13: GAUGAGA (DNA:RNA)
RNA: B1 RNA with U26A, C28G, U29A, G31A
DNA 1: CAATCTGAATTCCGGTCTCCC
DNA 2: TGGTGGCTACGACGGGATT
B14: AACGCAC (DNA:RNA)
RNA: B11 RNA with U25A, U28G, A29C, C30A, U31C
DNA 1: CAATCTGAATTCCGGTCTCCC
DNA 2: TGGTGGCTACGACGGGATT
B15: GAAGACA (DNA:RNA)
RNA: B11 RNA with U25G, C27A, U28G, U31A
DNA 1: CAATCTGAATTCCGGTCTCCC
DNA 2: TGGTGGCTACGACGGGATT
B16: UAAAAGA (DNA:RNA)
RNA: B11 RNA with C27A, U28A, C30G, U31A
DNA 1: CAATCTGAATTCCGGTCTCCC
DNA 2: TGGTGGCTACGACGGGATT
B17: AUGUAUU (DNA:RNA)
RNA: B11 RNA with U25A, A26U, C27G, C30U
DNA 1: CAATCTGAATTCCGGTCTCCC
DNA 2: TGGTGGCTACGACGGGATT
B18: CGGGACA (DNA:RNA)
RNA: B11 RNA with U25C, A26G, C27G, U28G, U31A
DNA 1: CAATCTGAATTCCGGTCTCCC
DNA 2: TGGTGGCTACGACGGGATT
B19: GUUGGGG (DNA:RNA)
RNA: B1 RNA with C28G, U29G
DNA 1: CAATCTGAATTCCGGTCTCCC
DNA 2: TGGTGGCTACGACGGGATT
B20: UUGGCCU (DNA:RNA)
RNA: B11 RNA with A26U, C27G, U28G, A29C
DNA 1: CAATCTGAATTCCGGTCTCCC
DNA 2: TGGTGGCTACGACGGGATT
B21: GAUACAC (DNA:RNA)
RNA: B1 RNA with U26A, C28A, U29C, G30A, G31C
DNA 1: CAATCTGAATTCCGGTCTCCC
DNA 2: TGGTGGCTACGACGGGATT
B22: CUCCGUU (DNA:RNA)
RNA: B1 RNA with G25C, U27C, U29G, G30U, G31U
DNA 1: CAATCTGAATTCCGGTCTCCC
DNA 2: TGGTGGCTACGACGGGATT
B23: CUCCGGG (DNA:RNA)
RNA: B1 RNA with G25C, U27C, U29G
DNA 1: CAATCTGAATTCCGGTCTCCC
DNA 2: TGGTGGCTACGACGGGATT
B24: ACACCCU (DNA:RNA)
RNA: B11 RNA with U25A, A26C, C27A, U28C, A29C
DNA 1: CAATCTGAATTCCGGTCTCCC
DNA 2: TGGTGGCTACGACGGGATT
B25: ACUUCCG (DNA:RNA)
RNA: B1 RNA with G25A, U26C, C28U, U29C, G30C
DNA 1: CAATCTGAATTCCGGTCTCCC
DNA 2: TGGTGGCTACGACGGGATT
B26: UGUGUCG (DNA:RNA)
RNA: B1 RNA with G25U, U26G, C28G, G30C
DNA 1: CAATCTGAATTCCGGTCTCCC
DNA 2: TGGTGGCTACGACGGGATT
B27: AAGCACA (DNA:RNA)
RNA: B11 RNA with U25A, C27G, U28C, U31A
DNA 1: CAATCTGAATTCCGGTCTCCC
DNA 2: TGGTGGCTACGACGGGATT
B28: CGAUGCU (DNA:RNA)
RNA: B11 RNA with U25C, A26G, C27A, A29G
DNA 1: CAATCTGAATTCCGGTCTCCC
DNA 2: TGGTGGCTACGACGGGATT
B29: AAUGUUU (DNA:RNA)
RNA: B1 RNA with G25A, U26A, C28G, G30U, G31U
DNA 1: CAATCTGAATTCCGGTCTCCC
DNA 2: TGGTGGCTACGACGGGATT
B30: AAUAGUC (DNA:RNA)
RNA: B1 RNA with G25A, U26A, C28A, U29G, G30U, G31C
DNA 1: CAATCTGAATTCCGGTCTCCC
DNA 2: TGGTGGCTACGACGGGATT
B31: UCAAACG (DNA:RNA)
RNA: B11 RNA with A26C, C27A, U28A, U31G
DNA 1: CAATCTGAATTCCGGTCTCCC
DNA 2: TGGTGGCTACGACGGGATT

Residue numbers refer to the chain shown, from its start. The list shows a part of the results.

The target in the experiment is T1, RBFOX1 RRM RbFoxmut (Fox-RRM*). Kind of experiment: EMSA; HiTS-Eq, 1 nM pool, 10 min; buffer printed only for the single-RNA assays: 10 mM Tris pH 7.5, 150 mM NaCl, 3.4 mM EDTA, 0.001% NP-40, 30 C. Particulars: tags: His6 N-terminal (pET28a); label: 5' 32P. Put shortly: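 Purified RbFox RRM (wild type or mutant) was equilibrated for 10 min in 50 µL with 1 nM of a 5′-radiolabelled pool of RNA with 7 randomized nucleotides, its flanks annealed to DNA oligonucleotides, across increasing protein concentrations. Free RNA was separated by 8% native PAGE, excised, reverse-transcribed, PCR-barcoded and sequenced on an Illumina HiSeq 2500. Relative association constants came from read-count changes of each variant against the control reaction, normalised to the cognate motif.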
On to B1, for which the binding signal was 0.0857 KA relative to UGCAUGU.
With B2, the binding signal is 0.0836 KA relative to UGCAUGU.
Turning to B3, the binding signal is 0.139 KA relative to UGCAUGU.
Turning to B4, the binding signal is 0.0905 KA relative to UGCAUGU.
With B5, the binding signal is 0.0768 KA relative to UGCAUGU.
For B6, the binding signal is 0.0732 KA relative to UGCAUGU.
Under B7 stands 0.138 KA relative to UGCAUGU.
B8: the binding signal is 0.0867 KA relative to UGCAUGU.
B9: the binding signal is 0.0641 KA relative to UGCAUGU.
As to B10, the binding signal was 0.351 KA relative to UGCAUGU.
As for B11, the figure is 0.102 KA relative to UGCAUGU; as for B12, 0.0817 KA relative to UGCAUGU; as for B13, 0.11 KA relative to UGCAUGU.
With B14, the binding signal is 0.0684 KA relative to UGCAUGU.
B15: the binding signal was 0.0478 KA relative to UGCAUGU.
As for B16, the figure is 0.0641 KA relative to UGCAUGU.
Consider B17, for which the binding signal was 0.168 KA relative to UGCAUGU.
Take B18: the binding signal is 0.0803 KA relative to UGCAUGU.
For B19, the binding signal was 0.0886 KA relative to UGCAUGU.
As to B20, the binding signal is 0.118 KA relative to UGCAUGU.
On to B21, for which the binding signal was 0.0711 KA relative to UGCAUGU.
For B22, the binding signal was 0.0962 KA relative to UGCAUGU.
As for B23, the figure is 0.0565 KA relative to UGCAUGU; as for B24, 0.0805 KA relative to UGCAUGU; as for B25, 0.0695 KA relative to UGCAUGU.
With B26, the binding signal is 0.253 KA relative to UGCAUGU.
Turning to B27, the binding signal is 0.0787 KA relative to UGCAUGU.
With B28, the binding signal is 0.104 KA relative to UGCAUGU.
For B29, the binding signal is 0.108 KA relative to UGCAUGU.
As to B30, the binding signal was 0.0525 KA relative to UGCAUGU.
Turning to B31, the binding signal is 0.0791 KA relative to UGCAUGU.
